# Measurements reported in the supplement of paper PMC9446081.
# Out of some 39,000 compounds screened, about 220 (0.56%) showed activity. Some of the results follow.
# Test system: Escherichia coli K-12 BW25113
# Experiment: relative growth (OD600 normalised to plate interquartile mean) (fraction); higher = less growth inhibition, active = 0.2 or less
# Conditions: 50 µM; LB; incubation time: overnight (16-24 h)
# 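Further: static incubation at 37 °C against the wild-type strain, values averaged over two biological replicates.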
row,SMILES,relative growth
1,COc1ccc([Si](C)(C)[C@@H]2[C@@H](CCO)O[C@]3(C(=O)N(Cc4cccc(N5C(=O)c6ccccc6Oc6ccccc65)c4)c4ccccc43)[C@H]2C)cc1,inactive: 1.03
2,CC(CO)(CO)NS(=O)(=O)c1ccccc1,inactive: 0.992
3,C[C@@H]1CN([C@H](C)CO[Si](C)(C)C(C)(C)C)C(=O)c2cc(NC(=O)Nc3ccccc3)ccc2O[C@@H](C)CCCCO[C@H]1CN(C)S(=O)(=O)c1ccc(F)cc1,inactive: 1.02
4,Nc1nc(CO)cs1,inactive: 0.983
5,Cc1noc(C)c1NC(=O)Nc1ccc2c(c1)C(=O)N([C@H](C)CO)C[C@@H](C)[C@@H](CN(C)Cc1ccncc1)OCCCC[C@@H](C)O2,inactive: 0.987
6,NC(=S)N1CCCC1,inactive: 1.01
7,C[C@H](CO)N1C[C@H](C)[C@H](CN(C)S(=O)(=O)c2cccs2)Oc2ccc(NS(=O)(=O)c3ccc(F)cc3)cc2CC1=O,inactive: 1.02
8,Cc1ccc(S[C@]2(C(=O)NCc3ccccc3)CC(=O)N(C3Cc4ccccc4C3)[C@@H]2c2ccc(CO)cc2I)cc1,inactive: 0.997
9,C[C@@H]1CCCCO[C@H](CN(C)S(=O)(=O)c2cccs2)[C@H](C)CN([C@H](C)CO)C(=O)c2cc(NS(C)(=O)=O)ccc2O1,inactive: 0.986
10,C[C@@H]1CN([C@@H](C)CO)C(=O)c2cc(C#CCN(C)C)cnc2O[C@@H]1CN(C)S(=O)(=O)c1cn(C)cn1,inactive: 0.998
11,C[C@H]1CN([C@@H](C)CO)C(=O)CCCn2nncc2CO[C@@H]1CN(C)S(=O)(=O)c1ccc(-c2ccccc2)cc1,inactive: 1
12,C[C@H](CO)N1C[C@H](C)[C@H](CN(C)S(=O)(=O)c2ccccc2)Oc2ccc(NS(=O)(=O)c3ccccc3)cc2C1=O,inactive: 0.972
13,C[C@]12C(=O)N(CCC(=O)O)C(=O)[C@H]1[C@@H]1C=C[C@@H]2C1,inactive: 0.975
14,COc1ccc2c3c(n(c2c1)C)[C@@H](CO)N(C[C@]13CCN(CC1)C(=O)Nc1c(noc1C)C)C(=O)Nc1ccc(cc1)F,inactive: 0.981
15,C/C=C/c1ccc([C@H]2[C@H](CO)N(S(=O)(=O)Cc3ccccc3)C23CN(C(=O)C2CCOCC2)C3)cc1,inactive: 1.01
16,C[C@@H]1CCCCO[C@H](CN(C)C(=O)CCCN(C)C)[C@@H](C)CN([C@@H](C)CO)C(=O)c2cc(NC(=O)Nc3ccc(F)cc3)ccc2O1,inactive: 1.01
17,C[C@H](CO)N1C[C@H](C)[C@H](CN(C)Cc2ccc(C(F)(F)F)cc2)OCCCC[C@H](C)Oc2ccc(NS(=O)(=O)c3cccs3)cc2C1=O,inactive: 0.988
18,COc1ccc(NC(=O)Nc2ccc3c(c2)C(=O)N([C@H](C)CO)C[C@H](C)[C@H](CN(C)C(=O)Nc2cccc4ccccc24)OCCCC[C@H](C)O3)cc1,inactive: 1.01
19,NC(=O)NCc1ccc2c(c1)OCO2,inactive: 0.995
20,C[C@@H]1CN([C@H](C)CO)C(=O)c2cc(C#CCN(C)C)cnc2O[C@H]1CN(C)Cc1ccc2c(c1)OCO2,inactive: 1.03
21,COCC(=O)N1C[C@H](C)[C@@H](OC)CN(C)C(=O)c2ccc(NC(=O)c3cc(C)on3)cc2OC[C@H]1C,inactive: 1.02

row,SMILES,relative growth
1,C[C@@H]1CN([C@H](C)CO)C(=O)c2c(c3ccccc3n2C)-c2ccccc2CO[C@H]1CN(C)Cc1cccc(F)c1,inactive: 0.978
2,CCCCCCCCCCCCCCCCOCCCOP(=O)(O)CO[C@H](CO)Cn1ccc(N)nc1=O,inactive: 0.983
3,CC[C@@H](N)CC12CC3CC(CC(C3)C1)C2,inactive: 0.987
4,C[C@@H]1CCCCO[C@H](CN(C)S(C)(=O)=O)[C@@H](C)CN([C@@H](C)CO)C(=O)c2cc(NS(=O)(=O)c3cn(C)cn3)ccc2O1,inactive: 0.952
5,CC(C)(C)OC(=O)C[C@H]1CC=CC[C@@H](CC(=O)N[C@H](CO)Cc2ccccc2)C(=O)N[C@@H](C(C)(C)C)COC1=O,inactive: 0.981
6,C[C@H](CO)N1C[C@H](C)[C@@H](CN(C)Cc2ccc(C(=O)O)cc2)Oc2ccc(NS(=O)(=O)c3ccccc3)cc2CC1=O,inactive: 1
7,CCCN(C)C[C@@H]1OCCCC[C@@H](C)Oc2ccc(NC(=O)Nc3ccc(F)cc3)cc2C(=O)N([C@H](C)CO)C[C@@H]1C,inactive: 0.999
8,COc1ccc(S(=O)(=O)N(C)C[C@H]2Oc3ccc(NC(=O)NC(C)C)cc3C(=O)N([C@@H](C)CO)C[C@@H]2C)cc1,inactive: 1.01
9,NC(=NC(=O)N1CCOCC1)c1ccccc1,inactive: 0.992
10,C[C@H]1CN([C@@H](C)CO)C(=O)c2cccc(NC(=O)NC3CCCCC3)c2O[C@@H]1CN(C)C(=O)Nc1cccc2ccccc12,inactive: 0.914
11,O=C1CCc2c(ccc3ccccc23)O1,inactive: 0.953
12,CN1CCN(C(=O)C[C@@H]2C=C[C@@H](NC(=O)c3ccc4c(c3)OCO4)[C@@H](CO)O2)CC1,inactive: 1
13,C[C@H]1CN([C@@H](C)CO)C(=O)Cc2cc(NC(=O)CCC(F)(F)F)ccc2O[C@@H]1CN(C)Cc1ccc(Oc2ccccc2)cc1,inactive: 0.986
14,CNC[C@@H]1Oc2cc(C#CCN(C)C)ccc2S(=O)(=O)N([C@@H](C)CO)C[C@H]1C,inactive: 0.981
15,C[C@@H]1CN([C@H](C)CO)C(=O)c2c(c3ccccc3n2C)-c2ccccc2CO[C@H]1CN(C)S(=O)(=O)c1cn(C)cn1,inactive: 0.993
16,Cc1cccc(N2C[C@@H](N)CC2=O)c1,inactive: 1.01
17,C[C@@H]1CN([C@H](C)CO)C(=O)c2cc(NC(=O)Cn3cnnn3)ccc2O[C@H]1CN(C)S(=O)(=O)c1cccs1,inactive: 0.994
18,O=C(C[C@H]1CC[C@H]2[C@@H](COC[C@H](O)CN2S(=O)(=O)c2ccc(F)cc2)O1)NCc1ccncn1,inactive: 1
19,COCC#Cc1cnc2c(c1)C(=O)N([C@@H](C)CO)C[C@H](C)[C@H](CN(C)S(=O)(=O)c1ccccc1)O2,inactive: 1
20,CCc1ccc(CCOc2ccc(CC3SC(=O)NC3=O)cc2)nc1.Cl (stereo not drawn),inactive: 1.07
21,C[C@@H]1CN([C@@H](C)CO)C(=O)c2cc(C#CCN(C)C)cnc2O[C@@H]1CN(C)C(=O)Nc1cc(F)ccc1F,inactive: 0.989

row,SMILES,relative growth
1,Cn1c(=O)c2c(ncn2C)n(C)c1=O,inactive: 0.885
2,O=C(C[C@H]1CC[C@@H]2NC[C@H](O)COC[C@H]2O1)NCCN1CCCCC1,inactive: 0.982
3,O=C(O)[C@@H]1C[C@H](C(F)(F)F)CN1,inactive: 0.985
4,COc1ccccc1CNC(=O)C[C@@H]1CC[C@H]2[C@@H](COC[C@@H](O)CN2C(=O)Nc2ccc(Cl)cc2)O1,inactive: 0.953
5,C[C@H](CO)N1C[C@H](C)[C@@H](CN(C)Cc2ccc(Cl)c(Cl)c2)Oc2ccc(NC(=O)Nc3cccc4ccccc34)cc2C1=O,inactive: 1.02
6,O=C(C[C@@H]1C[C@@H]2c3cc(NC(=O)c4ccc5c(c4)OCO5)ccc3O[C@@H]2[C@@H](CO)O1)NCc1ccc(Oc2ccccc2)cc1,inactive: 1.02
7,COCCOC(=O)N1C(=O)[C@@]2(c3cc(C#CCC(C(=O)OC)C(=O)OC)ccc31)[C@H](c1ccc(O)cc1)N1[C@H](c3ccccc3)[C@H](c3ccccc3)OC(=O)[C@H]1[C@@H]2C(=O)N1CCc2cc(OC)c(OC)cc2C1,inactive: 0.99
8,Cn1c(=O)c2c(ncn2CCCCn2cnc3c2c(=O)n(C)c(=O)n3C)n(C)c1=O,inactive: 0.965
9,C[C@@H]1CN([C@H](C)CO)C(=O)c2cc(NC(=O)CCC(F)(F)F)ccc2O[C@@H](C)CCCCO[C@@H]1CN(C)Cc1ccncc1,inactive: 1.01
10,C[C@@H]1CN([C@H](C)CO)C(=O)c2cccc(NC(=O)C3CCCCC3)c2O[C@@H]1CN(C)Cc1ccc(C(F)(F)F)cc1,inactive: 0.884
11,C[C@@H]1NC(=O)[C@@]23C(=O)N[C@@H](Cc4ccccc4)[C@@H]2[C@H](C)[C@@]2(C)O[C@H]2[C@H]3/C=C/C/C=C\CNC(=O)[C@@H]2CCCN2C1=O,inactive: 1
12,C[C@@H]1CN([C@H](C)CO)C(=O)c2c(c3ccccc3n2C)-c2ccccc2CO[C@H]1CN(C)Cc1ccc(F)cc1,inactive: 0.993
13,C[C@H]1CN([C@@H](C)CO)C(=O)CCCn2cc(nn2)CO[C@H]1CN(C)C(=O)CCCN(C)C,inactive: 0.986
14,Cc1noc(C)c1NC(=O)Nc1ccc2c(c1)C(=O)N([C@H](C)CO)C[C@@H](C)[C@@H](CN(C)Cc1ccc(Cl)c(Cl)c1)O2,inactive: 1.03
15,C[C@H]1CN([C@@H](C)CO)C(=O)Cc2cc(NC(=O)Nc3cccc4ccccc34)ccc2O[C@H]1CN(C)C(=O)Nc1cccc2ccccc12,inactive: 1.01
16,C[C@@H]1CN([C@H](C)CO)C(=O)c2c(c3ccccc3n2C)-c2ccccc2CO[C@@H]1CN(C)C(=O)CCC(F)(F)F,inactive: 0.942
17,Cc1noc(C)c1S(=O)(=O)N(C)C[C@H]1Oc2ccc(NS(=O)(=O)c3cccs3)cc2CC(=O)N([C@@H](C)CO)C[C@@H]1C,inactive: 0.998
18,COc1cccc(-c2ccc3c(c2)O[C@H](CN(C)C(=O)C2CCC2)[C@H](C)CN([C@@H](C)CO)S3(=O)=O)c1,inactive: 1
19,C[C@@H]1CCCCO[C@H](CN(C)C(=O)CCC(F)(F)F)[C@H](C)CN([C@@H](C)CO)C(=O)c2cc(NC(=O)c3ccccc3)ccc2O1,inactive: 0.962
20,CCCN(C)C[C@H]1Oc2cc(C#Cc3ccc(OC)cc3)ccc2S(=O)(=O)N([C@@H](C)CO)C[C@H]1C,inactive: 1.01
21,C[C@H](CO)N1C[C@H](C)[C@H](CN(C)C)Oc2ccc(NC(=O)Cc3cn(C)c4ccccc34)cc2CC1=O,inactive: 0.984
